Paper PMC3226628, “The Golgi Localization of GOLPH2 (GP73/GOLM1) Is Determined by the Transmembrane and Cytoplamic Sequences” (PLoS ONE, 2011)
These are yes or no findings as the source states them, for the method shown.

Tests used:
Experiment in all cases: two-hybrid; Matchmaker GAL4 Two-Hybrid System 3; AH109 (pGBKT7 fusions) mated with Y187 (pGADT7 fusions); growth on SD/-Trp/-Leu/-His/-Ade (++) or SD/-Trp/-Leu/-Ade with 1 mM 3-AT (+), 30°C, 3 d to 8 d
[1] = molecular target: T1, GOLPH2 IV (two-hybrid fragment) (human) (UniProt Q8NBJ4)
T1 sequence: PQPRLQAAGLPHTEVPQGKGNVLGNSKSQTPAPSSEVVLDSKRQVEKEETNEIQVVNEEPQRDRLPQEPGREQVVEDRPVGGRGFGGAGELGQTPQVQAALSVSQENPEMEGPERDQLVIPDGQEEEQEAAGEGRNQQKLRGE

[2] = molecular target: T2, GOLPH2-IIIA (amino acids 56–152) (human) (UniProt Q8NBJ4)
T2 sequence: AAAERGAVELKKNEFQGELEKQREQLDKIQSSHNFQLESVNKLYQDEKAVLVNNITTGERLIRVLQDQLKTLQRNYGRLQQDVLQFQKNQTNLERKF

[3] = molecular target: T3, GOLPH2-III–IV–V (two-hybrid fragment) (human) (UniProt Q8NBJ4)
T3 sequence: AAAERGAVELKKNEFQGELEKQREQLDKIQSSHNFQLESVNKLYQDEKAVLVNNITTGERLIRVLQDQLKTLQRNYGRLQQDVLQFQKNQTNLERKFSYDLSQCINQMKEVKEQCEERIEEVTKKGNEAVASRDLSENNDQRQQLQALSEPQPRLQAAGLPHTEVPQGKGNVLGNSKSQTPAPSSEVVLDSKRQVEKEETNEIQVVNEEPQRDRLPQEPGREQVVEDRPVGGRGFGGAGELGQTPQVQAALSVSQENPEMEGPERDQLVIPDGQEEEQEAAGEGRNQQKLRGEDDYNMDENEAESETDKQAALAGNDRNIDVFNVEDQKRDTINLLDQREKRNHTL

[4] = molecular target: T4, GOLPH2 V (two-hybrid fragment) (human) (UniProt Q8NBJ4)
T4 sequence: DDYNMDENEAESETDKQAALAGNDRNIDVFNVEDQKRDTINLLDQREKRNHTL

Measured: binding

B1: GOLPH2-IIIB (amino acids 153–205) (domain or fragment, UniProt Q8NBJ4 153-205)
chain: SYDLSQCINQMKEVKEQCEERIEEVTKKGNEAVASRDLSENNDQRQQLQALSE
no binding: [1] | [2] | [3] | [4]
